Read-outs that look alike come from different tables or passages of the source.
Tests used:
DhaA.WT [1] = molecular target: T1, DhaA.WT (Rhodococcus rhodochrous, UniProt P0A3G2); assay type: binding
Text: Then the proteins were resolved on SDS-PAGE.

DhaA.WT [2] = molecular target: T1, DhaA.WT

T1 sequence (P0A3G2 whole entry): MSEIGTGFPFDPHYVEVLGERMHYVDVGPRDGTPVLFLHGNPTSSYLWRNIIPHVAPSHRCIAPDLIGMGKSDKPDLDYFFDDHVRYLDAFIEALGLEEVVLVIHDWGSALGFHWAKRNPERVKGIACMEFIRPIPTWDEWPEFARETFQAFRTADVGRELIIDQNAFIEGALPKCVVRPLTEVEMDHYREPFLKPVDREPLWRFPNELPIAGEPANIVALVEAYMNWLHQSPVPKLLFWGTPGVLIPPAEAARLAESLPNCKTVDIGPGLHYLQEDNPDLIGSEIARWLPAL

| Molecule | binding to DhaA.WT (DhaA.WT [1]; 15 minutes at room temperature) | hydrolysis by DhaA.WT (DhaA.WT [2]) | binding to DhaA.WT (DhaA.WT [1]) |
| --- | --- | --- | --- |
| O=C(NCCOCCOCCCCCCCl)c1ccc(-c2c3ccc(=O)cc-3oc3cc(O)ccc23)c(C(=O)O)c1 [N-{2-[2-(6-Chlorohexyloxy)-ethoxy]-ethyl}-fluorescein-5-amide] | not to DhaA.WT | very efficiently hydrolyzed | – |
| N-{2-[2-(6-Chlorohexyloxy)-ethoxy]-ethyl}-tetramethylrhodamine-5-(and -6)-amide | – | – | not to DhaA.WT |
| O=C(CCCC[C@@H]1SC[C@@H]2NC(=O)N[C@@H]21)NCCOCCOCCCCCCCl [biotin-C10H21NO2—Cl, N-{2-[2-(6-Chlorohexyloxy)-ethoxy]ethyl}-biotin-amide] | not to DhaA.WT | – | – |

From patent US9416353B2, “Covalent tethering of functional groups to proteins and substrates therefor” (Promega Corporation, priority 2004, dated 2016)
